In article PMC4336329 (PLoS ONE, 2015):
Screen size: about 310,000 compounds; about 14,000 (4.5%) showed an effect of 50% or more. The effect is printed as a negative number. Some of the results follow.

molecular target: human ether-à-go-go-related gene (hERG) potassium channel (human, UniProt Q12809); experiment: primary screen, population patch clamp on CHO cells stably expressing hERG
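Also: peak tail current of the secondary pulse compared with the same well before compound.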

human ether-à-go-go-related gene (hERG) potassium channel, sequence (Q12809 whole entry, looked up): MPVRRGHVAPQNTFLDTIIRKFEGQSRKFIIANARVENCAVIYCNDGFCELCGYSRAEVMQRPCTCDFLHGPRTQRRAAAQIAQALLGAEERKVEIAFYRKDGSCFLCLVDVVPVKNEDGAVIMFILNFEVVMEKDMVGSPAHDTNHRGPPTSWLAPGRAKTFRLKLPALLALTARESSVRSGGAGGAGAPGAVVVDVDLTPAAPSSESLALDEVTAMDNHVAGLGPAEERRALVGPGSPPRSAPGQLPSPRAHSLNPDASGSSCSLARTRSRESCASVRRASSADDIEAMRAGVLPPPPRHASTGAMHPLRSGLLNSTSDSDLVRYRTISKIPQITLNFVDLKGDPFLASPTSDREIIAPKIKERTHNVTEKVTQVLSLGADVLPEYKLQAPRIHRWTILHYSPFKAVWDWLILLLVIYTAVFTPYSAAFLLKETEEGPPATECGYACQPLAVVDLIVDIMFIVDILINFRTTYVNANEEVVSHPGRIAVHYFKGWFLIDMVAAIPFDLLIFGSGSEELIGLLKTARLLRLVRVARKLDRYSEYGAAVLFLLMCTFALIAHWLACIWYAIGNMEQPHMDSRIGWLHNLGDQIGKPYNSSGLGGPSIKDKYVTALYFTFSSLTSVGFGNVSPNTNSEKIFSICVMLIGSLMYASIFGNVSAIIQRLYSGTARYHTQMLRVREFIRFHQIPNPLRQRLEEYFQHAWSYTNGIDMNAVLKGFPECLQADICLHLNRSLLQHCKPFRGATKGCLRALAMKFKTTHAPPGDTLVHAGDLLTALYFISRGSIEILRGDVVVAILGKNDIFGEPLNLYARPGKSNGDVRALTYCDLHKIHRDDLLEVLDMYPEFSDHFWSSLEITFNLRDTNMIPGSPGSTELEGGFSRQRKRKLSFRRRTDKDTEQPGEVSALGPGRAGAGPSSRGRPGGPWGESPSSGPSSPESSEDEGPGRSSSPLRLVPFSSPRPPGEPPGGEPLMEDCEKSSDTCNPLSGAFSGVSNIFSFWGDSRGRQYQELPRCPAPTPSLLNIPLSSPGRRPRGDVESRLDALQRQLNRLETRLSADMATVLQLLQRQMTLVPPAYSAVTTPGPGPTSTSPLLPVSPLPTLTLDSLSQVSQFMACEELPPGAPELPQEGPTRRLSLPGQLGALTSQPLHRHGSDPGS

Compound | hERG current change (%, negative = inhibition) at 10uM [%]
Cc1nnc2sc(-c3ccccn3)nn12 | 18.2
CC(C)(C)c1cnnn1-c1ccc(C(=O)CCl)cc1 | -21.6
COc1ccc(CCNC(=O)c2c([S-])n(-c3ccc(C)cc3)c3cccc[n+]23)cc1 | -14.1
O=C(NC1(C(F)(F)F)Oc2ccccc2O1)N1CCCC1 | -8.28
COc1ccc(S(=O)(=O)N2CCC(C(N)=O)CC2)cc1 | 6.5
C=CCn1c(COc2ccc(CC)cc2)nnc1SCC(=O)NC1CCS(=O)(=O)C1 (stereo not drawn) | -14.1
O=C(CC1OC(=O)c2ccccc21)NCC1COc2ccccc2O1 (stereo not drawn) | -32.7
COc1ccc(NC(=S)N(CCO)Cc2cc3c(C)cc(C)cc3[nH]c2=O)cc1 | -48.8
c1ccc(OCCCc2nc(-c3cccnc3)no2)cc1 | -14.2
COCc1cc(C2C(C(=O)c3ccco3)=C(O)C(=O)N2CCOCCO)ccc1O (stereo not drawn) | 10.6
CCn1ncc(C2=NOC(C(=O)Nc3cccc(C(C)=O)c3)C2)c1C (stereo not drawn) | -12.6
Cc1ccc(SCC(=O)Nc2cc(C)on2)cc1 | 7.34
COc1ccc(C(=O)NCC(c2ccco2)N(C)C)cc1S(=O)(=O)NCc1ccc(Cl)cc1 (stereo not drawn) | -32.6
CC(=O)Nc1ccc(NC(=O)c2cc(=O)c3ccc(C)cc3o2)cc1 | 17.4
CCN(CC)c1ccc(C(=O)NN)cc1 | 8.76
COc1ccc(/C=N/OCC(=O)Nc2nc3ccccc3s2)cc1 | -8.89
CCOc1ccccc1Oc1nc(-c2ccccc2O)nc2ccccc12 | 15.5
O=C(N/N=C/c1ccc([N+](=O)[O-])cc1)c1ccccc1OCc1ccccc1 | 1.19
CC(=O)C1=NOC2C(=O)N(c3ccc(Cl)cc3)C(=O)C12 (stereo not drawn) | 15.9
Cc1cccc(OCc2nnc(SCC(=O)N3CCc4ccccc43)n2C)c1 | -5.99
Cn1c(CNC(=O)C(Cc2ccccc2)NC(=O)c2cccc(F)c2)cc(=O)n(C)c1=O (stereo not drawn) | -5.24
CCOC(=O)CSc1nnc(-c2ccncc2)o1 | 13.5
COC(=O)COn1c(SCC(=O)OC)nc2ccccc2c1=O | -15.7

Compound | hERG current change (%, negative = inhibition) at 10uM [%]
Cc1ccc(C)c(N2CCN(C(=O)CN3C(=S)NC(C)(C)CC3C)CC2)c1 (stereo not drawn) | 8.14
Cc1cc(/C=C(/C#N)C(=O)O)c(C)n1-c1cccc2ccccc12 | 20.1
C=CCN(c1ccccc1C(=O)NCC(=O)O)S(=O)(=O)c1ccccc1C | 24.7
CC12CC(c3ccccc3O1)C(C(=O)OCc1ccccc1)C(=O)N2 (stereo not drawn) | 1.51
COc1cc(OC)c(OC)cc1/C=C/c1cc(C(=O)O)c2ccccc2n1 | 12.1
CCOC(=O)N1CCN(c2cc(=O)n(-c3ccccc3Cl)c(=O)[nH]2)CC1 | 14.1
Cc1nn(C(C)C(=O)NC2CCC(C)CC2)c(=O)c2nn(-c3ccccc3)c(C)c12 (stereo not drawn) | -28.3
O=C(NCC(=O)N1CCN(c2ccccc2O)CC1)c1ccco1 | -8.76
COc1ccccc1NC(=O)Cn1nnc(C(=O)NCCc2ccccc2)c1N | 11.6
O=C(CN1CCOCC1)Nc1ncc(Cc2cccc3ccccc23)s1 | -23.3
C/C(=N\NC(=O)c1ccccc1O)c1cccc(NC(=O)c2ccccc2)c1 | -0.335
CCOC(=O)C1(CC)NC(c2ccco2)C2C(=O)N(c3ccc(C)cc3)C(=O)C21 (stereo not drawn) | 6.82
CC(=O)Nc1ccc(Nc2c3ccccc3nc3ccccc23)cc1 | -55.7
COc1ccc([N+](=O)[O-])cc1N(CC(=O)NC(C(C)C)C(C)C)S(C)(=O)=O | -20
N#CC1=C(N)OC2=C(C(=O)CCC2)C1CCc1ccccc1 (stereo not drawn) | -6.93
CCc1ccc(C(=O)COC(=O)c2cncc(Br)c2)cc1 | -20.7
C=C(C)c1cccc(C(C)(C)NC(=O)NCC2CCCO2)c1 (stereo not drawn) | 3.74
CN1CCN(C2CCN(c3cccc(Cl)c3)CC2)CC1CCO (stereo not drawn) | 12.9
CSc1ncccc1C(=O)OCC(=O)N(C)C | 6.49
O=C(NNC(=O)c1ccc2c(=O)n3c(nc2c1)CCC3)c1ccc(F)cc1 | -4.34
O=C1N=C(N2CCOCC2)S/C1=C\c1ccncc1 | -2.19
CCOc1cccc(Nc2cc3n(c(=O)n2)CCc2cc(OC)c(OC)cc2-3)c1 | -17.4
CC(CCc1ccco1)NC(=O)c1cccc2c1C(=O)N(C1CCCCC1)C2 (stereo not drawn) | -6.82

Compound | hERG current change (%, negative = inhibition) at 10uM [%]
O=C(NNC(=S)NCC1CCCO1)c1ccc(S(=O)(=O)N2CCOCC2)cc1 (stereo not drawn) | 5.93
COc1ccc(C2=CC(c3sccc3C)n3nnnc3N2)cc1 (stereo not drawn) | 2.05
CC(=O)Oc1ccc(Nc2ccccc2)cc1 | 19
Cc1ccc(S(=O)(=O)N(C)c2ccc(OC(=O)c3cccs3)cc2)cc1C | 16.9
COc1cc(OC)cc(C(=O)NCCc2cnc[nH]2)c1 | 22.7
CCCCOCCCN1CC(=O)N2C(C)c3[nH]c4ccccc4c3C[C@H]2C1=O (stereo partly drawn) | -3.57
Cc1oc2ccc(OCc3cccc(Cl)c3)cc2c1C(=O)O | 21.6
COc1ccc(CNc2ccc(N3CCOCC3)cc2)cc1 | 16.8
Cc1ccc(C(=O)/C=C/C(=O)O)cc1 | 7.47
O=C(NC1CCCC1)c1cccc(S(=O)(=O)N2CCCCC2)c1 | -10.7
COc1cc2c(OC(C)=O)c3c(c(-c4ccc5c(c4)OCO5)c2cc1OC)C(=O)OC3 | 15.4
COCCN(CC(=O)NCc1ccc(OC)cc1)C(=O)CCC(=O)Nc1nccs1 | -8.1
Cc1cc2nc(-c3ccc[nH]c3=O)[nH]c2cc1C | 15.4
CCOC(=O)c1c(CS(=O)(=O)c2ccccc2)n(C)c2cc(Br)c(O)c(CN(C)C)c12 | -50.4
COCCCNC(=O)COc1ccc(S(=O)(=O)Nc2ccccc2)cc1 | -12.4
C/C(CC(C)C)=N\Nc1ccc(S(N)(=O)=O)cc1[N+](=O)[O-] | 0.529
COCCNC(=O)/C(C#N)=C/c1c(N2CCN(c3cccc(Cl)c3)CC2)nc2c(C)cccn2c1=O | -3.5
COc1nc(SCC(=O)Nc2ccccc2Cl)nc(N(C)C)n1 | 3.1
CSCCC(NS(=O)(=O)c1ccccc1F)C(=O)NCCCn1nc(C)cc1C (stereo not drawn) | -1.49
COc1ccc(C(=O)CCc2ccc(OC)c(OC)c2)cc1 | -10.3
CCc1ccc(NC(=O)CN2CCc3ccccc3C2)cc1 | -34.2
Cn1c(CNC(=O)c2ccc(Cl)cc2)nnc1SCC(=O)N1CCOCC1 | 15.4
O=C(Nc1ccccc1)Nc1ccc(F)cc1F | 10.9

Compound | hERG current change (%, negative = inhibition) at 10uM [%]
N#Cc1cccc(-c2nnc(SCc3ccccc3C#N)o2)c1 | -14.4
O=C(NC(=O)N1CCN(c2ccc(F)cc2)CC1)c1ccccc1 | -27.5
O=C(CSc1nnc2ccccn12)c1ccc(Cl)cc1 | -0.78
Cc1sc2ncnc(-n3nnc4ccccc43)c2c1C | -16.8
Fc1ccc(-n2nnc(-c3ccccc3Cl)n2)cc1 | 12.2
CN(C)C(=S)Nc1ccc(Cc2ccncc2)cc1 | 13.4
COc1cc(C(=O)Nc2cc(C)ccn2)ccc1OCC(=O)N1CCOCC1 | -8.72
O=C(O)c1ccc(/C=N/NC(=O)c2cc(-c3ccc4c5c(cccc35)CC4)n[nH]2)cc1 | 18.1
COc1ccc([N+](=O)[O-])cc1NC(=O)c1ccc(Br)s1 | 2.86
Cc1ccc(CC(=O)Nc2nc3c(s2)CCCC3)cc1 | -9.39
O=C1CCCN1CN(C(=O)c1ccccc1)c1ccccc1 | -7.7
NNC(=O)c1ccc(CSc2nc3ccccc3s2)cc1 | 6.09
O=C(Nc1ccc(Br)cc1)C1CCN(C(=O)c2ccco2)CC1 | -14
Cc1ccccc1NC1(C#N)CCCCC1 | -1.06
CC(=O)Nc1ccc(S(=O)(=O)NNC(=O)c2ccc(S(=O)(=O)N3CCCCC3)cc2)cc1 | 6.41
O=S(=O)(Cc1ccccc1Cl)Nc1ccccn1 | -1.18
Cc1ccc(C(=O)OCC(=O)NN2C(=O)NC3(CCC(C)CC3)C2=O)cc1 (stereo not drawn) | 2.78
CCC(=O)N1CCc2cc(Br)cc(S(=O)(=O)N3CCCC(C(=O)O)C3)c21 (stereo not drawn) | 7.41
O=C(O)CCc1ccc(-c2ccc(Br)cc2)n1CC(=O)O | 4.99
COc1ccc(Cl)c(OC)c1C(=O)NC(=O)Nc1c(F)cc(F)cc1F | 1.14
COc1ccc(-[n+]2c(-c3ccccc3)cc(-c3ccccc3)cc2-c2ccccc2)cc1.[O-][Cl+3]([O-])([O-])[O-] | -71.9
